Data on 42 sequences can be found in PMC7819943, “Rice protein-binding microarrays: a tool to detect cis-acting elements near promoter regions in rice”.

This is one part of the list.

This test deals with T1, OsWOX13 (Oryza sativa, UniProt Q5QMM3 1-267).
T1 sequence: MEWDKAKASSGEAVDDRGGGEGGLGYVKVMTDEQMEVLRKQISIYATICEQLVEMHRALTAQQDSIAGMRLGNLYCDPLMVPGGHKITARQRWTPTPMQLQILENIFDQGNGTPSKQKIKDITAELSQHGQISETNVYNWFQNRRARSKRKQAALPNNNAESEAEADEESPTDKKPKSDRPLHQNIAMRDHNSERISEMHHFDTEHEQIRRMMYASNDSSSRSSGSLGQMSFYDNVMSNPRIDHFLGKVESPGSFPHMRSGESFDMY
Description: protein-binding microarray (RPBM); PBS, 2% BSA, 51.3 ng/ul salmon testes DNA, 50 uM zinc acetate, 200 nM TF, 25 C, 1 h; high values mean tight binding. The note with it: protein: recombinant; tags: N-terminal polyhistidine and DsRed monomer fusion (pET32a); label: CyDye5-dUTP incorporated in the synthesized complementary strand; 3' TTTTT single-stranded linker to array surface; dsDNA, one strand shown. The method in brief:
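Polyhistidine-tagged DsRed fusions of transcription factors, joined at the N-terminus, were expressed in E. coli BL21-CodonPlus and isolated on Ni–NTA. They were incubated at 200 nM for 1 h at 25 °C on a custom Agilent array, double-stranded and BSA-blocked, in PBS with 2% BSA, salmon testes DNA and 50 µM zinc acetate. The binding signal is per-feature fluorescence intensity (arbitrary units) read on an Axon 4000B scanner after washing.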
With “CTTAACTGTAACACTATTGCGTTGATTACTTCTACTTATTCGGAGTCACCTAGTGCAG”, the binding signal is 15200 fluorescence intensity (a.u.).

As to “CGTTCAGATTATTGTTAGTGGTGACTATTACTCCGTAGTACGGAGTCACCTAGTGCAG”, the binding signal was 3660 fluorescence intensity (a.u.).

Take “AGCAGATTTACATGTATATGCTTTTAGGCTGTTGAACGGGCGGAGTCACCTAGTGCAG”: the binding signal is 3160 fluorescence intensity (a.u.).

“AAATATCATGGCTAATCATCAGCATGAATAGTGTTTTCTACGGAGTCACCTAGTGCAG”: the binding signal was 3300 fluorescence intensity (a.u.).

Turning to “GTTAGATTGCGCATAACTGAACGGAATGCATAAGAAGTTGCGGAGTCACCTAGTGCAG”, the binding signal is 33800 fluorescence intensity (a.u.).

Consider “ATTTGCTAATTAGGAAAACAAGTTACCACGAATTTGTTTTCGGAGTCACCTAGTGCAG”, for which the binding signal was 26800 fluorescence intensity (a.u.).

With “TAAGTTCAATTGATGTTTATGTTTAAATAACTTATTGTTCCGGAGTCACCTAGTGCAG”, the binding signal was 3420 fluorescence intensity (a.u.).

Turning to “TCACCTCGTCAAGCTCAATCATTCATCCACTAGTCAAGGCCGGAGTCACCTAGTGCAG”, the binding signal was 9510 fluorescence intensity (a.u.).

For “TGATAATTTTATCCTCTTATCCCCTTCGGATTAAATTATTCGGAGTCACCTAGTGCAG”, the binding signal is 6610 fluorescence intensity (a.u.).

For “ACCCAGTAATTTCCAAATCTAAAGATAGGAGATTTTAGGACGGAGTCACCTAGTGCAG”, the binding signal was 6740 fluorescence intensity (a.u.).

Take “AGAAACACCATAATGGACACTAAATTACCATATCCTCAAGCGGAGTCACCTAGTGCAG”: the binding signal was 5240 fluorescence intensity (a.u.).

Take “CATCAATGACAGGAGGAACAACCTCAGAGGCTGGTACAAGCGGAGTCACCTAGTGCAG”: the binding signal is 4900 fluorescence intensity (a.u.).

Turning to “ATAAATAAACAAATAATCTTGACTCATCCTAATCCAGAGTCGGAGTCACCTAGTGCAG”, the binding signal is 13600 fluorescence intensity (a.u.).

Turning to “TCAAATTAAATAGCCTCATCAGGGGATTTACCATAGAACACGGAGTCACCTAGTGCAG”, the binding signal is 7660 fluorescence intensity (a.u.).

As for “GCCTATCTTGATTGGAAAACGCACAACCGGGTTGGATGCACGGAGTCACCTAGTGCAG”, the binding signal was 28300 fluorescence intensity (a.u.).

On to “TCCATAAACTATCATATTGATGGCTTTGTTAATCTCAAGACGGAGTCACCTAGTGCAG”, for which the binding signal is 3780 fluorescence intensity (a.u.).

As for “ATTGAGACAGACAGCCAGACAGGATAGTTAATACCACTTTCGGAGTCACCTAGTGCAG”, the binding signal is 3880 fluorescence intensity (a.u.).

For “TACACACCATAATTGAAGTATTGAGTCACACATAATTGAACGGAGTCACCTAGTGCAG”, the binding signal was 9690 fluorescence intensity (a.u.).

Turning to “AAAATTAGTTTTGACACCCCTTGATACTTCCGATCTGCATCGGAGTCACCTAGTGCAG”, the binding signal is 3180 fluorescence intensity (a.u.).

Regarding “ATTAAACGTAGATTACTGACAAAACCCATTCTATAACCCCCGGAGTCACCTAGTGCAG”, the binding signal was 6660 fluorescence intensity (a.u.).

As for “AAAATAAAATTTATTAATAATATTTTATCTATATTTACGACGGAGTCACCTAGTGCAG”, the binding signal is 8320 fluorescence intensity (a.u.).

Regarding “GTTTGATTTTGACCAAAGTCAACACGTTAGCTGAAACGGACGGAGTCACCTAGTGCAG”, the binding signal is 7770 fluorescence intensity (a.u.).

Regarding “AGATGTTAATTGCTGAATACTTGTAGTCCCTTATGTTGATCGGAGTCACCTAGTGCAG”, the binding signal is 22600 fluorescence intensity (a.u.).

As for “TTTAACGTGATATATTGACCGCGGTTGACTAGTTGAGTCACGGAGTCACCTAGTGCAG”, the binding signal was 12100 fluorescence intensity (a.u.).

For the sequence “CATGATAGAGCACCAAAAGGCTCTCATGGTGGAGCTGCGTCGGAGTCACCTAGTGCAG”, the binding signal was 4010 fluorescence intensity (a.u.).

On to “CGTTTATGATTTGTTCAGATTTAGTTATTGCAGTATATCTCGGAGTCACCTAGTGCAG”, for which the binding signal is 32100 fluorescence intensity (a.u.).

In the case of “TGCAGTGATTAGGGAACAGCTCCTTTTATTTACCTTTGTGCGGAGTCACCTAGTGCAG”, the binding signal was 35500 fluorescence intensity (a.u.).

In the case of “CGCTAATCTGATGGGTAACCCTACTCAAATCATTTCAAATCGGAGTCACCTAGTGCAG”, the binding signal was 4220 fluorescence intensity (a.u.).

Regarding “ATTTAATACTCTAAATTAGCGTCCAAACATCCGACGTGACCGGAGTCACCTAGTGCAG”, the binding signal was 5500 fluorescence intensity (a.u.).

Consider “CCTTGATAATTCCCTGCATCATACCCCTATTCCGGTATGACGGAGTCACCTAGTGCAG”, for which the binding signal is 3290 fluorescence intensity (a.u.).

On to “GCTGATTGAGAGAAGATTTCTCTTATTCTCCGCCCGCATGCGGAGTCACCTAGTGCAG”, for which the binding signal is 24900 fluorescence intensity (a.u.).

As to “TCTAGATTTGATCATTTTGACCTCTTGCTCCGTTAGATCTCGGAGTCACCTAGTGCAG”, the binding signal is 9940 fluorescence intensity (a.u.).

As for “ACTGTTTGATTTATTCGCTTGGGCCGTAAATCTTGTGTGTCGGAGTCACCTAGTGCAG”, the binding signal is 13400 fluorescence intensity (a.u.).

Regarding “GAAATCTATCTATCAAATTGACCCTACTATTTAACCCTGACGGAGTCACCTAGTGCAG”, the binding signal is 7330 fluorescence intensity (a.u.).

Regarding “TTCTGATCACAGATCAATTACTCTTGATCGCCCATTTATTCGGAGTCACCTAGTGCAG”, the binding signal was 9590 fluorescence intensity (a.u.).

Consider “TATAATTATGTCATCACATCAGCACCATATATATGGAATCCGGAGTCACCTAGTGCAG”, for which the binding signal is 16300 fluorescence intensity (a.u.).

For “TACAGGTTCAGTGATAATTTAATCATAAAACTTACACGTGCGGAGTCACCTAGTGCAG”, the binding signal was 3330 fluorescence intensity (a.u.).

As to “TCCAAATTGGCGGTTGGATCGAGCCAGCGCCGCGGCCACGCGGAGTCACCTAGTGCAG”, the binding signal is 3950 fluorescence intensity (a.u.).

For the sequence “TTCAACTATAAATTGAAATCGAATCCATTTCTTGTGATACCGGAGTCACCTAGTGCAG”, the binding signal was 8080 fluorescence intensity (a.u.).

With “TCTTAAATTTTCGGAGCTCAATAACAAATTTTAATACCACCGGAGTCACCTAGTGCAG”, the binding signal is 4110 fluorescence intensity (a.u.).

As to “GTTAATGGTGACTTTATTTTCGTCTGTTACAAAACGGAAGCGGAGTCACCTAGTGCAG”, the binding signal was 6500 fluorescence intensity (a.u.).

With “ATCACCTAATCAATTGAATCCATCAATTCAAGTAGATTCACGGAGTCACCTAGTGCAG”, the binding signal is 9390 fluorescence intensity (a.u.).
